Values joined by “and” are separate entries in the source; they are usually repeats but may differ in a detail not shown here. Identical values can stand only once. Further values from the same series stand in other lists.
Test: xn = mol fraction of the nth substance listed

CC(C)[C@H](N)C(=O)O + O
viscosity
Details	308.15 K	313.15 K	318.15 K	323.15 K
100 kPa, x1 = 0.00045	–	0.6557 mPa·s	–	–
100 kPa, x1 = 0.0009	–	0.6589 mPa·s	–	–
100 kPa, x1 = 0.0013	–	0.6623 mPa·s	–	–
100 kPa, x1 = 0.00166	–	0.68 mPa·s	0.614 mPa·s	0.557 mPa·s
100 kPa, x1 = 0.0018	–	0.6658 mPa·s	–	–
100 kPa, x1 = 0.00225	0.7396 mPa·s	0.6691 mPa·s	–	–
100 kPa, x1 = 0.00269	0.7436 mPa·s	0.6723 mPa·s	–	–
100 kPa, x1 = 0.00314	0.748 mPa·s	0.6751 mPa·s	–	–
100 kPa, x1 = 0.003502	0.794 mPa·s	0.72 mPa·s	0.647 mPa·s	–
100 kPa, x1 = 0.00359	0.7517 mPa·s	–	–	–
100 kPa, x1 = 0.005397	0.832 mPa·s	0.755 mPa·s	0.679 mPa·s	0.613 mPa·s
100 kPa, x1 = 0.007209	0.871 mPa·s	0.786 mPa·s	0.708 mPa·s	0.639 mPa·s
100 kPa, x1 = 0.008575	0.9 mPa·s	0.81 mPa·s	0.726 mPa·s	0.654 mPa·s
101 kPa, x1 = 0.0004	0.724 mPa·s	0.657 mPa·s	0.6 mPa·s	–
101 kPa, x1 = 0.000452	0.7238 mPa·s	0.6572 mPa·s	0.6015 mPa·s	–
101 kPa, x1 = 0.0007	0.73 mPa·s	0.662 mPa·s	0.605 mPa·s	–
101 kPa, x1 = 0.0009	0.7311 mPa·s	0.664 mPa·s	0.6079 mPa·s	–
101 kPa, x1 = 0.001	0.743 mPa·s	0.668 mPa·s and 0.673 mPa·s	0.61 mPa·s and 0.615 mPa·s	–
101 kPa, x1 = 0.00135	0.7387 mPa·s	0.6712 mPa·s	0.6147 mPa·s	–
101 kPa, x1 = 0.0018	0.747 mPa·s and 0.7467 mPa·s	0.6786 mPa·s	0.619 mPa·s and 0.6217 mPa·s	–
101 kPa, x1 = 0.002245	0.7546 mPa·s	0.6861 mPa·s	0.6287 mPa·s	–
101 kPa, x1 = 0.002695	0.7628 mPa·s	0.6938 mPa·s	0.6359 mPa·s	–
